IC50 is the fitted dose that halves viability relative to control wells, and lower means more sensitive; a fit beyond the top or the lowest dose is shown as a bound at that dose. AUC sums up the same curve from the lowest dose to the 256-fold higher top dose; the more sensitive the line, the further below 1. For some assays here: A top dose marked as inferred comes from the curve model; the source does not state it.
Columns and labels:
Experiment in all cases: Viability of human cancer cell lines after 72 h of drug (GDSC screen)
Vismodegib = compound: CS(=O)(=O)c1ccc(C(=O)Nc2ccc(Cl)c(-c3ccccn3)c2)c(Cl)c1 [Vismodegib]; conditions: top dose 10 µM; top dose inferred
Procedure: (§1)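 Human cancer cell lines in 384-well plates, medium with 10% serum, drug for 72 h over a 256-fold dose range (nine 2-fold or five 4-fold steps up to the top dose). Adherent lines were fixed and stained with the nucleic acid dye Syto60, suspension lines read with resazurin; signal relative to control wells, capped at 0 and 100%. One two-parameter sigmoid per drug and line, fitted in a mixed model over all curves with the slope shared within a line.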

BMX-IN-1 (QL-XII-61) = compound: C=CC(=O)Nc1cc(-n2c(=O)ccc3cnc4ccc(-c5ccc(NS(C)(=O)=O)cc5)cc4c32)ccc1C [BMX-IN-1 (QL-XII-61)]; conditions: top dose 10 µM; top dose inferred
Procedure: as §1

CCT018159 = compound: CCc1cc(-c2n[nH]c(C)c2-c2ccc3c(c2)OCCO3)c(O)cc1O [CCT018159]; conditions: top dose 10 µM; top dose inferred
Procedure: as §1

BIX02189 = compound: CN(C)Cc1cccc(N=C(c2ccccc2)c2c(O)[nH]c3cc(C(=O)N(C)C)ccc23)c1 [BIX02189]; conditions: top dose 20 µM; top dose inferred
Procedure: as §1

TG101348 = compound: Cc1cnc(Nc2ccc(OCCN3CCCC3)cc2)nc1Nc1cccc(S(=O)(=O)NC(C)(C)C)c1 [TG101348]; conditions: top dose 10.24 µM
Procedure: as §1

17-AAG = compound: C=CCNC1=C2C[C@@H](C)C[C@H](OC)[C@H](O)[C@@H](C)/C=C(\C)[C@H](OC(N)=O)[C@@H](OC)/C=C\C=C(/C)C(=O)NC(=CC1=O)C2=O [17-AAG]; conditions: top dose 1 µM
Procedure: as §1

VX-11e = compound: Cc1cnc(Nc2ccc(F)cc2Cl)nc1-c1c[nH]c(C(=O)N[C@H](CO)c2cccc(Cl)c2)c1 [VX-11e]; conditions: top dose 5.12 µM; top dose inferred
Procedure: as §1

OSI-027 = compound: COc1cccc2cc(-c3nc([C@H]4CC[C@H](C(=O)O)CC4)n4ncnc(N)c34)[nH]c12 [OSI-027]; conditions: top dose 20 µM
Procedure: as §1

UNC1215 = compound: O=C(c1ccc(C(=O)N2CCC(N3CCCC3)CC2)c(Nc2ccccc2)c1)N1CCC(N2CCCC2)CC1 [UNC1215]; conditions: top dose 1 µM; top dose inferred
Procedure: as §1

Doxorubicin = compound: COc1cccc2c1C(=O)c1c(O)c3c(c(O)c1C2=O)C[C@@](O)(C(=O)CO)C[C@@H]3O[C@H]1C[C@H](N)[C@H](O)[C@H](C)O1 [Doxorubicin]; conditions: top dose 1.024 µM
Procedure: as §1

Dimethyloxalylglycine = compound: COC(=O)CNC(=O)C(=O)OC [Dimethyloxalylglycine]; conditions: top dose 4000 µM; top dose inferred
Procedure: as §1

Cell Line	AUC (Vismodegib)	IC50 (Vismodegib)	AUC (BMX-IN-1 (QL-XII-61))	IC50 (BMX-IN-1 (QL-XII-61))	AUC (CCT018159)	IC50 (CCT018159)	AUC (BIX02189)	IC50 (BIX02189)	AUC (TG101348)	IC50 (TG101348)	AUC (17-AAG)	IC50 (17-AAG)	AUC (VX-11e)	IC50 (VX-11e)	AUC (OSI-027)	IC50 (OSI-027)	AUC (UNC1215)	IC50 (UNC1215)	AUC (Doxorubicin)	IC50 (Doxorubicin)	AUC (Dimethyloxalylglycine)	IC50 (Dimethyloxalylglycine)
TK (B-cell lymphoma, suspension)	0.988	> 10 µM	0.902	> 10 µM	0.932	> 10 µM	0.934	> 20 µM	0.791	4.16 µM	0.981	> 1 µM	0.984	> 5.12 µM	0.198	0.177 µM	0.98	> 1 µM	0.749	0.307 µM	0.244	49.8 µM
SNG-M (endometrium, adherent)	0.977	> 10 µM	0.664	1.76 µM	0.797	4.6 µM	0.92	> 20 µM	0.65	1.65 µM	0.944	> 1 µM	0.833	3.19 µM	0.347	0.474 µM	0.982	> 1 µM	0.295	0.0172 µM	0.834	2520 µM
MOG-G-UVW (glioma, adherent)	0.945	> 10 µM	0.929	> 10 µM	0.822	5.62 µM	0.969	> 20 µM	0.933	> 10.2 µM	0.75	0.319 µM	0.986	> 5.12 µM	0.497	1.22 µM	0.976	> 1 µM	0.492	0.0611 µM	0.621	533 µM
NCI-H1993 (lung adenocarcinoma, adherent)	0.965	> 10 µM	0.918	> 10 µM	0.799	6.66 µM	0.979	> 20 µM	0.897	> 10.2 µM	0.92	> 1 µM	0.898	> 5.12 µM	0.818	16.2 µM	0.981	> 1 µM	0.877	> 1.02 µM	0.521	290 µM
NCI-H1944 (lung adenocarcinoma, adherent)	0.985	> 10 µM	0.961	> 10 µM	0.842	7.72 µM	0.957	> 20 µM	0.757	3.75 µM	0.512	0.0676 µM	0.892	> 5.12 µM	0.658	3.53 µM	0.984	> 1 µM	0.577	0.106 µM	0.113	< 15.6 µM
COLO-800 (melanoma, adherent)	0.937	> 10 µM	0.938	> 10 µM	0.925	> 10 µM	0.967	> 20 µM	0.757	3.42 µM	0.71	0.239 µM	0.975	> 5.12 µM	0.203	0.171 µM	0.985	> 1 µM	0.572	0.1 µM	0.704	920 µM
ESS-1 (endometrium, adherent)	0.99	> 10 µM	0.911	> 10 µM	0.937	> 10 µM	0.99	> 20 µM	0.743	2.91 µM	0.696	0.208 µM	0.989	> 5.12 µM	0.85	12.9 µM	0.987	> 1 µM	0.222	0.011 µM	0.436	171 µM
NB14 (neuroblastoma, adherent)	0.989	> 10 µM	0.888	> 10 µM	0.85	6.89 µM	0.944	> 20 µM	0.921	> 10.2 µM	0.972	> 1 µM	0.939	> 5.12 µM	0.887	> 20 µM	0.988	> 1 µM	0.711	0.241 µM	0.72	1010 µM
LK-2 (lung squamous cell carcinoma, adherent)	0.989	> 10 µM	0.988	> 10 µM	0.947	> 10 µM	0.927	> 20 µM	0.866	8.3 µM	0.692	0.208 µM	0.958	> 5.12 µM	0.633	2.85 µM	0.987	> 1 µM	0.813	0.513 µM	0.747	1210 µM
EW-24 (Ewing sarcoma, semi-adherent)	0.974	> 10 µM	0.908	> 10 µM	0.989	> 10 µM	0.983	> 20 µM	0.89	9.29 µM	0.984	> 1 µM	0.983	> 5.12 µM	0.993	> 20 µM	0.989	> 1 µM	0.892	0.946 µM	0.867	2900 µM
NB5 (neuroblastoma, adherent)	0.975	> 10 µM	0.936	> 10 µM	0.984	> 10 µM	0.97	> 20 µM	0.901	> 10.2 µM	0.934	> 1 µM	0.969	> 5.12 µM	0.644	3.14 µM	0.985	> 1 µM	0.759	0.362 µM	0.916	> 4000 µM

— the supplement of paper PMC4967469
